The supplement of paper PMC4967469

What was measured:
Assay in all cases: Viability of human cancer cell lines after 72 h of drug (GDSC screen)
[1] = compound: N#CC(c1ccnc(NCCc2cccnc2)n1)c1nc2ccccc2s1 [AS601245]; conditions: top dose 8 µM; top dose inferred
Description: (§1)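 Human cancer cell lines in 384-well plates, medium with 10% serum, drug for 72 h over a 256-fold dose range (nine 2-fold or five 4-fold steps up to the top dose). Adherent lines were fixed and stained with the nucleic acid dye Syto60, suspension lines read with resazurin; signal relative to control wells, capped at 0 and 100%. One two-parameter sigmoid per drug and line, fitted in a mixed model over all curves with the slope shared within a line.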

[2] = compound: Cn1cnc2c(F)c(Nc3ccc(Br)cc3Cl)c(C(=O)NOCCO)cc21 [AZD6244]; conditions: top dose 4 µM; screen: GDSC drug entry 1498; top dose inferred
Description: as §1

[3] = compound: Cc1ccc(NC(=O)c2cccc(C(C)(C)C#N)c2)cc1Nc1ccc2ncn(C)c(=O)c2c1 [AZ628]; conditions: top dose 4 µM; top dose inferred
Description: as §1

[4] = compound: Nc1ccc(C(=O)Nc2cccc(-c3nc(N4CCOCC4)c4oc5ncccc5c4n3)c2)cn1 [YM201636]; conditions: top dose 5.12 µM; top dose inferred
Description: as §1

[5] = compound: NC(=O)C1CCCc2c1[nH]c1ccc(Cl)cc21 [EX-527]; conditions: top dose 20 µM
Description: as §1

| Cell Line | AUC [1] | IC50 [1] | AUC [2] | IC50 [2] | AUC [3] | IC50 [3] | AUC [4] | IC50 [4] | AUC [5] | IC50 [5] |
| --- | --- | --- | --- | --- | --- | --- | --- | --- | --- | --- |
| KINGS-1 (glioma, adherent) | 0.935 | > 8 µM | 0.922 | > 4 µM | 0.831 | 3.99 µM | 0.892 | > 5.12 µM | 0.972 | > 20 µM |
| KM12 (large intestine, adherent) | 0.791 | 3.93 µM | 0.939 | > 4 µM | 0.759 | 1.51 µM | 0.911 | > 5.12 µM | 0.973 | > 20 µM |
| KM-H2 (Hodgkin lymphoma, suspension) | 0.904 | 7.82 µM | 0.991 | > 4 µM | 0.976 | > 4 µM | 0.946 | > 5.12 µM | 0.99 | > 20 µM |
| KMOE-2 (acute myeloid leukaemia, suspension) | 0.928 | > 8 µM | 0.306 | 0.0764 µM | 0.369 | 0.113 µM | 0.765 | 1.69 µM | 0.985 | > 20 µM |
| KNS-42 (glioma, adherent) | 0.878 | > 8 µM | 0.967 | > 4 µM | 0.943 | > 4 µM | 0.881 | > 5.12 µM | 0.954 | > 20 µM |
| KNS-81-FD (glioma, adherent) | 0.937 | > 8 µM | 0.848 | > 4 µM | 0.864 | > 4 µM | 0.94 | > 5.12 µM | 0.973 | > 20 µM |
| KOPN-8 (B-cell leukaemia, suspension) | 0.877 | 6.07 µM | 0.942 | > 4 µM | 0.876 | 3.01 µM | 0.833 | 2.66 µM | 0.974 | > 20 µM |
| KP-N-YN (neuroblastoma, adherent) | 0.938 | > 8 µM | 0.94 | > 4 µM | 0.867 | > 4 µM | 0.926 | > 5.12 µM | 0.987 | > 20 µM |
| KS-1 (glioma, adherent) | 0.83 | 6.79 µM | 0.792 | 2.33 µM | 0.581 | 0.441 µM | 0.876 | > 5.12 µM | 0.98 | > 20 µM |
| KU812 (chronic myeloid leukaemia, suspension) | 0.926 | > 8 µM | 0.563 | 0.366 µM | 0.899 | > 4 µM | 0.592 | 0.56 µM | 0.987 | > 20 µM |
| KURAMOCHI (ovary, adherent) | 0.781 | 3.87 µM | 0.879 | > 4 µM | 0.887 | > 4 µM | 0.88 | > 5.12 µM | 0.984 | > 20 µM |
| KY821 (leukaemia, suspension) | 0.961 | > 8 µM | 0.873 | 3.03 µM | 0.968 | > 4 µM | 0.984 | > 5.12 µM | 0.982 | > 20 µM |
| KYM-1 (rhabdomyosarcoma, adherent) | 0.881 | 6.31 µM | 0.973 | > 4 µM | 0.878 | 3.05 µM | 0.97 | > 5.12 µM | 0.989 | > 20 µM |
| L-363 (myeloma, suspension) | 0.877 | 6.18 µM | 0.965 | > 4 µM | 0.97 | > 4 µM | 0.902 | 5.09 µM | 0.99 | > 20 µM |
| L-428 (Hodgkin lymphoma, suspension) | 0.905 | > 8 µM | 0.992 | > 4 µM | 0.988 | > 4 µM | 0.976 | > 5.12 µM | 0.991 | > 20 µM |
| L-540 (Hodgkin lymphoma, suspension) | 0.894 | 7.82 µM | 0.978 | > 4 µM | 0.914 | > 4 µM | 0.981 | > 5.12 µM | 0.989 | > 20 µM |
| L-1236 (Hodgkin lymphoma, suspension) | 0.941 | > 8 µM | 0.979 | > 4 µM | 0.99 | > 4 µM | 0.939 | > 5.12 µM | 0.991 | > 20 µM |
| LAMA-84 (chronic myeloid leukaemia, suspension) | 0.941 | > 8 µM | 0.936 | > 4 µM | 0.448 | 0.18 µM | 0.893 | > 5.12 µM | 0.971 | > 20 µM |
| LAN-6 (neuroblastoma, adherent) | 0.923 | > 8 µM | 0.833 | 3.28 µM | 0.638 | 0.647 µM | 0.966 | > 5.12 µM | 0.982 | > 20 µM |
| LB373-MEL-D (melanoma, adherent) | 0.895 | > 8 µM | 0.751 | 1.29 µM | 0.72 | 1.04 µM | 0.887 | > 5.12 µM | 0.986 | > 20 µM |
| LB771-HNC (head and neck, adherent) | 0.909 | > 8 µM | 0.855 | > 4 µM | 0.964 | > 4 µM | 0.911 | > 5.12 µM | 0.971 | > 20 µM |
| LB831-BLC (bladder, adherent) | 0.67 | 1.5 µM | 0.95 | > 4 µM | 0.978 | > 4 µM | 0.962 | > 5.12 µM | 0.972 | > 20 µM |
| LB996-RCC (kidney, adherent) | 0.755 | 3.11 µM | 0.899 | > 4 µM | 0.872 | > 4 µM | 0.951 | > 5.12 µM | 0.983 | > 20 µM |
| LB1047-RCC (kidney, adherent) | 0.672 | 1.61 µM | 0.74 | 1.34 µM | 0.921 | > 4 µM | 0.882 | > 5.12 µM | 0.981 | > 20 µM |
| LB2241-RCC (kidney, adherent) | 0.773 | 3.48 µM | 0.69 | 0.912 µM | 0.906 | > 4 µM | 0.945 | > 5.12 µM | 0.983 | > 20 µM |

A lower IC50 marks a more sensitive line; fits outside the tested doses are given as limits. AUC, from the same fit, is the share of area under the viability curve across the 256-fold dose range; values near 1 show little effect. For some of these results: An inferred top dose was derived from the fitted curves, not read from the paper. For some of these results: Drugs with an entry number were screened twice under separate entries, and the two screens often disagree.
